PubChem BioAssay AID1508623 (National Center for Advancing Translational Sciences (NCATS), 2021)
Among all 48,000 compounds or so, about 450 (0.94%) were called active. Inconclusive results (about 19%) are left out. Calls follow the shape of the dose curve; as a rule, active = well fitted inhibition curve with a large enough effect; inconclusive = small, poorly fitted or top-dose-only effect; inactive = no such curve, though single readings can be large or run the other way. The list shows a part of the results.

test: Primary qHTS for Identification of Small Molecule Inhibitors of Huntingtin Promoter Activity; details: HEK293 HTT promoter firefly luciferase reporter (activity 0% = vehicle and -100% = no light), 24 h; series mostly up to 57.5 µM; activity change, negative = inhibition: at the top concentration; also: nearly all actives have a fitted effect of over 50% in size
In short: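 Luminescence was read after Dual-Glo reagent and a 10 min room-temperature incubation. Values were normalized to vehicle (0% activity) and zero RLU (-100% activity). Reporter HEK293 cells had been exposed to compounds (up to 57.5 uM final) for 24 h.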

Activity change, negative = inhibition, inactive:
CCOC(=O)c1ccc(N2C(=O)c3n[nH]c(C)c3C2c2ccc(O)c(OC)c2)cc1 (stereo unspecified) 4.3%, COc1ccc(N2CCN(C(=O)Cn3cnc4sc(C)c(S(=O)(=O)N5CCC(C)CC5)c4c3=O)CC2)cc1 -2.94%, Cc1ccc(-n2ncc(C(=O)N3CCN(c4ccccn4)CC3)c2C2CCN(C(=O)OC(C)(C)C)CC2)cc1C 1.69%, Cc1cc(=O)oc2c3c(ccc12)OCN(Cc1ccccc1Cl)C3 -15.9%, Cc1ccc(NC(=O)N(Cc2c[nH]c3ccccc23)C2CCCCCC2)cc1C 14.3%, O=c1n(Cc2ccc([N+](=O)[O-])cc2)c2ccccc2c2nc(-c3ccccc3)nn12 -12.5%, Cc1c(NC(=O)Nc2ccccc2C(F)(F)F)c(=O)n(-c2ccccc2)n1C -5.14%, CCOc1ccc(C2=C(C(C)=O)Sc3nnc(C)n3N2C(C)=O)cc1 -23.2%, Cn1c(=O)n(C)c2cc(CNCc3ccc(F)cc3)ccc21 -8.95%, Cc1ccc(Cn2cnc3nc4c(cc3c2=O)CCCC4)cc1 35.4%, CCOc1ccc(NC(=O)c2cccc3c(=O)c4c([nH]c23)CCCC4)cc1 -10.4%, Cc1cc(C)cc(-n2c(SCC(=O)Nc3ccccc3F)nc3c(oc4ccccc43)c2=O)c1 -17.9%, COc1ccc(CCNC(=O)CCN2N=C(c3ccccc3)CCC2=O)cc1OC 13.1%, CCc1ccc(NC(=O)C2(c3cccs3)CCOCC2)cc1 -6.02%, Cc1oc2ncn(CC(C)C)c(=O)c2c1C(=O)N1CCN(c2ccccc2F)CC1 -2.95%, Cc1cc(C)c(NC(=O)CN(c2ccccc2)S(=O)(=O)N(C)C)c(C)c1 -14.9%, O=C(Nc1ccc2oc(-c3ccc4ccccc4c3)nc2c1)c1cccc(Cl)c1Cl -6.47% [at 11.5 µM], Clc1ccc(-c2nnn3c2nc(N2CCCCC2)c2ccccc23)cc1 -1.57%, Cc1ccccc1NC(=O)c1cc2ccccc2o1 81.9%, COC(=O)c1sc2cccc(F)c2c1S(=O)(=O)NCc1ccc(F)cc1 0%, COc1ccc(C2CC(=O)N(Cc3cccc(C)c3)c3c2c(C)nn3-c2nc(C)cc(C)n2)c(OC)c1 (stereo unspecified) -21.7%, Cc1ccccc1-n1c(=O)c2ccccc2n(Cc2ccc(F)cc2)c1=O -23.1%, CCOC(=O)c1cnc2c(Cl)c(Cl)ccc2c1Nc1ccc(N(C)C)cc1 -1.64%, COc1ccc(-n2c(=O)c3c4c(sc3n(Cc3c(F)cccc3Cl)c2=O)CN(C(C)=O)CC4)cc1OC 9.91%, CCCc1cc(C(N)=S)ccn1, Cc1ccc(-c2noc(CN(C(=O)c3ccc(C(C)(C)C)cc3)C(C)C)n2)cc1 -3.59%, O=S(=O)(c1ccccc1)n1nc(-c2ccc(Cl)cc2)nc1NCc1ccc(F)cc1 -34.5%, COc1cccc(NC(=O)Cn2c(=O)c3cccn3c3ccc(F)cc32)c1 -18.5%, COc1cccc(-c2nc(SCC(=O)NCc3ccccc3)c3c(=O)n(C)c(=O)n(C)c3n2)c1 6.59%, Cc1ccc(CCNC(=O)CCS(=O)(=O)c2ccc3c(c2)oc(=O)n3C)cc1 -4.79% [at 11.5 µM], COc1cccc(N2CCN(S(=O)(=O)c3ccc(-c4cc(C(F)(F)F)on4)s3)CC2)c1 5.13%, CCOc1ccccc1NC(=O)Nc1ccccc1OCc1cc(=O)n2ccccc2n1 10.2%, Cc1ccc(CCNC(=O)c2ccc(CS(=O)(=O)Cc3ccc(Cl)cc3)o2)cc1 0%, CN(CC(=O)NCc1ccc(Cl)cc1)S(=O)(=O)c1ccc2c(c1)c(=O)n(C)c(=O)n2C -4.67%, CCOc1ccccc1NC(=O)Cn1c(=O)n(-c2ccc(C)c(C)c2)c(=O)c2c(C)c(C(=O)N(C)C)sc21 6.78%, COc1cccc(-c2nnc(SCC(=O)N3CCc4ccccc43)o2)c1 -6.01%, CCS(=O)(=O)c1c(S(=O)(=O)CC)c2cc(C(C)(C)C)ccn2c1C(=O)c1ccc(F)cc1 -24.3%, Cc1cc2c(cc1C)NC(CC(=O)Nc1cccc(C)c1C)C(=O)N2 (stereo unspecified) -9.5%, CC(=O)Nc1ccc(C(=O)Nc2ccccc2N)cc1 161%, CCN(Cc1ccccc1)C(=O)CN1C(=O)COc2ccc(S(=O)(=O)N3CCOCC3)cc21 0.0456%, Cc1ccc2oc(=O)c(-c3nc(-c4cccs4)no3)cc2c1 31%, COc1ccc(-n2cnc3cc(C(=O)NCCC4=CCCCC4)ccc32)cc1 -7.15%, COc1cc2c(Nc3ccc(NC(=O)c4ccccc4)cc3)ncnc2cc1OCCCN1CCOCC1 4.69%, COC(=O)c1ccccc1NC(=O)Cc1nc(-c2ccc(OC)cc2)no1 -16.9%, O=C(Nc1cccc(C(=O)OCc2cc(=O)n3ccsc3n2)c1)c1ccc(F)cc1 3.93%, CCOCCCNC(=O)CCC(=O)NNc1nc2ccccc2c2nc(C)nn12 -6.9%, Cc1nc2nc(SCC(=O)NCCc3ccc(Cl)cc3)nn2c(C)c1Cc1c(F)cccc1Cl -8.54%, Cc1ccc(NC(=O)C2CCCN2S(=O)(=O)c2ccc3c(c2)n(C)c(=O)c(=O)n3C)cc1 (stereo unspecified) -13.6%, CCCOc1ccc(C(=O)Nc2cccc(NC(=O)c3ccc(Cl)cc3Cl)c2)cc1 -9.73%, Cc1nn(CC(=O)NCc2ccco2)c(=O)c2nn(-c3ccccc3)c(C)c12 -7.56%, CC(=O)N1CCc2cc(CNS(=O)(=O)c3ccccc3C(F)(F)F)ccc21 7.8%, CCOc1cccc(C2Oc3nc(SC)nnc3-c3ccccc3N2C(C)=O)c1OC (stereo unspecified) -4% [at 11.5 µM], Cc1cc(C)cc(NC(=O)Cn2c(C)cc(C)c(C#N)c2=O)c1 -3.55%, O=C(CSc1nc2ccccc2n1Cc1cccc(C(F)(F)F)c1)NCc1ccccc1 -20.4%, CC(=O)Nc1ccc(NC(=O)c2c(-c3ccccc3)noc2C)cc1 -1.08%, O=C(O)c1ccc(CSc2nc3cccnc3n2Cc2cccc(F)c2)cc1 -0.724%, Nc1ncc(S(=O)(=O)N2CCN(c3ccccc3)CC2)cn1 -9.75%, COC(=O)CC1Oc2ccc(Cl)cc2-n2cc(-c3ccc(C)cc3)nc21 (stereo unspecified) -3.17%, O=C(CSc1nc2c([nH]c3ccccc32)c(=O)n1-c1ccc(F)cc1)Nc1ccc2c(c1)OCO2 -26.5%, COc1ccc(Cl)cc1NC(=O)c1oc2ccc(S(=O)(=O)N3CCCCC3)cc2c1C -3.51%, COc1ccc(N2CCN(C(=O)c3ccc(CS(=O)c4cccc(C)c4)o3)CC2)cc1 (stereo unspecified) -18.8%
